# Laboratory results taken from PubChem BioAssay AID1030 (National Center for Advancing Translational Sciences (NCATS), 2008).
# The campaign covered roughly 220,000 compounds. About 16,000 (7.3%) were called active. The shares of active, inactive and inconclusive entries below differ from those in the screen. Calls follow the shape of the dose curve; as a rule, active = well fitted inhibition curve with a large enough effect (not every such curve was filed as active); inconclusive = small, poorly fitted or top-dose-only effect, or another doubt; inactive = no such curve, though single readings can be large or run the other way. No potency is given beside an inconclusive call; the fits are too rough.
# Target: Aldehyde dehydrogenase 1A1 (Homo sapiens) (UniProt P00352)
# Assay: qHTS Assay for Inhibitors of Aldehyde Dehydrogenase 1 (ALDH1A1);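 as to activity, negative = inhibition: plate controls were no enzyme wells and a reference inhibitor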
# Settings: Purified ALDH1A1, NADH fluorescence, propionaldehyde substrate; series mostly up to 75.3 µM; activity, negative = inhibition: at the top concentration
# Potency is read from the fitted curve at half-maximal effect; tags tell the direction and shape of the fitted curve.
# UniProt P00352, sequence (P00352 whole entry, looked up): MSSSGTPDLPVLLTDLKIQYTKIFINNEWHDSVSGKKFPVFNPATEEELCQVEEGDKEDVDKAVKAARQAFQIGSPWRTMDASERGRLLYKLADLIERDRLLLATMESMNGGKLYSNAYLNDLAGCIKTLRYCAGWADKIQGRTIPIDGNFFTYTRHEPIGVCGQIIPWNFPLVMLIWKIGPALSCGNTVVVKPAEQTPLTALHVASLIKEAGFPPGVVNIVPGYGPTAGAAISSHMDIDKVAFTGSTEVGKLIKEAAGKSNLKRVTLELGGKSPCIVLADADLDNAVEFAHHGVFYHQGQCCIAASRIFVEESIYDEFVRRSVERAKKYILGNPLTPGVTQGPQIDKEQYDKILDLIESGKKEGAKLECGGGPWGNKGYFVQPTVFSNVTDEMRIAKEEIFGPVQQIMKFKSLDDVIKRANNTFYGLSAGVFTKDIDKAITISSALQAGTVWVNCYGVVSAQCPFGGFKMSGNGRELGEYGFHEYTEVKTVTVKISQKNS
SMILES,Potency,"activity, negative = inhibition"
COc1ccc(-c2nnc3sc(COc4ccc(C)cc4)nn23)cc1,"inconclusive [inhibitor, single point]",
COC(=O)C/C=C\[C@@H](C)[C@@H](/C=N\OC[C@@H](C)[C@H](OCc1ccccc1)C(C)C)NS(=O)(=O)c1ccc(C)cc1,,inactive: 8.76% [at 13.5 µM]
CC(=O)Nc1ccc(N=Nc2c(C)[nH]n(C(N)=S)c2=O)cc1,"inconclusive [inhibitor, partial curve]",
O=C1Nc2c(c(=O)[nH]c(=O)n2Cc2ccccc2)C1(NS(=O)(=O)c1ccccc1)C(F)(F)F (stereo not given),"inconclusive [inhibitor, single point]",
Cc1cc(N)n2nc(C)c(-c3ccc(Cl)cc3)c2n1,"inconclusive [inhibitor, single point]",
COc1ccc(N2CCC(CNC(=O)Nc3ccc(Cl)cc3)C2)cc1 (stereo not given),active: 5.62 µM,
COc1ccc(-c2nc(C#N)c(NCCCn3ccnc3)o2)cc1OC,"inconclusive [inhibitor, partial curve]",
CCOC(=O)c1ccccc1NCN1C(=O)CSC1=O,"inconclusive [inhibitor, single point]",
COc1ccc2[nH]c3c(=S)nc[nH]c3c2c1,"inconclusive [inhibitor, partial curve]",
Nc1c(C(=O)NC2CCCCC2)nsc1C(=O)OCC(=O)NC1CCCCC1,"inconclusive [inhibitor, partial curve]",
CCn1cc(C(C)NC(=O)Nc2ccc3c(c2)OCO3)c(C)n1 (stereo not given),,inactive: 2.51%
Cn1cnnc1SCC(=O)c1ccc(OC(F)F)cc1,"inconclusive [inhibitor, single point]",
C=C[C@](C)(O)CCC1C(=C)CC(OC(C)=O)C2C(C)(C)CCCC12C (stereo not given in full),,inactive: 1.97%
CC(C1CC1)N(Cc1ccccc1)C(=O)NC(=O)c1ccccc1 (stereo not given),,inactive: 8.85%
Cc1ccc(S(=O)(=O)N2CCC(C(=O)C3C(=O)CCCC3=O)CC2)cc1,"inconclusive [inhibitor, partial curve]",
COc1ccc(-n2c(C)cc(C(=O)CN3C(=O)c4ccccc4C3=O)c2C)cc1,"inconclusive [inhibitor, single point]",
c1ccc(CN2CCC(Nc3ncnc4sccc34)CC2)cc1,,inactive: -9.27%
O=[N+]([O-])c1ccc2nccn2c1,,inactive: 0.366%
O=C(Nc1ccc(N2CCN(C(=O)c3cccs3)CC2)c(Cl)c1)c1ccco1,active: 28.2 µM,
COCCN(Cc1nc(C2(c3ccc(C)cc3)CCCC2)no1)C(C)C,,inactive: -1.23%
Cc1noc(/C=C/N(C)C)c1S(=O)(=O)N1CCCC(C(=O)NCc2ccc(F)cc2)C1 (stereo not given),"inconclusive [inhibitor, partial curve, poor fit]",
CCN(CC)CCNS(=O)(=O)c1ccc(/C=C/C(=O)O)cc1,,inactive: 4.64%
O=C1COc2ccc(C(=O)CSc3nnc(-c4cccs4)n3Cc3ccccc3)cc2N1,"inconclusive [inhibitor, single point]",
O=C(C1CCN(C2CCN(C/C=C/c3ccccc3)CC2)CC1)N1CCOCC1,,inactive: 8.93%

SMILES,Potency,"activity, negative = inhibition"
O=C(O)c1cn(-c2ccc(F)c(F)c2)c2c(F)c(F)c(F)c(F)c2c1=O,"inconclusive [inhibitor, single point]",
COc1cccc(NC(=O)CSc2ccccn2)c1,active: 20 µM,
CSCCC(NC(=O)C1CCC(C)CC1)C(=O)NCc1ccco1 (stereo not given),,inactive: 5.15%
COc1ccc(CNC(=S)Nc2ccc(F)c(Cl)c2)cc1,"inconclusive [inhibitor, full curve]",
CSc1ccccc1NC(=O)c1cnccn1,"inconclusive [inhibitor, single point]",
COc1ccc(OCC(=O)N2CCc3c([nH]c4ccccc34)C2c2ccccn2)cc1 (stereo not given),active: 0.447 µM,
O=C(O)c1ccc2c(c1)C(=O)N(Cc1ccccc1)C2=O,,inactive: -11.4%
COC(=O)CCc1c(C)c(C#N)c2nc3ccccc3n2c1N1CCCC1,"inconclusive [inhibitor, single point]",
c1ccc(CCNc2ccnc3cc4ccccc4cc23)cc1,"inconclusive [inhibitor, single point]",
CCc1nnc(NS(=O)(=O)c2ccc(NC(=S)NC(=O)/C=C/c3cccs3)cc2)s1,active: 12.6 µM,
CC(C)(C)NC(=O)C(c1ccc(F)cc1)N(Cc1cccs1)C(=O)c1ccc(CN2CCOCC2)o1 (stereo not given),"inconclusive [inhibitor, single point]",
COc1ccc(N2C(=O)C3C4C=CC(C4)C3C2=O)c([N+](=O)[O-])c1 (stereo not given),,inactive: 8.43%
NS(=O)(=O)Cc1noc2ccccc12,,inactive: 3.39%
CCOCCCn1c(=NC(C)=O)c(C#N)cc2c(=O)n3cccc(C)c3nc21,"inconclusive [inhibitor, partial curve]",
COc1ccc(C2C(C(=O)c3ccco3)=C(O)C(=O)N2Cc2cccnc2)cc1OC (stereo not given),"inconclusive [inhibitor, single point]",
O=C(NCC1CC1)c1ccc(Oc2cc(Cl)cc(Cl)c2)o1,"inconclusive [inhibitor, single point]",
Cc1nc2cnc(N3CCOCC3)nc2n(Cc2cccs2)c1=O,"inconclusive [inhibitor, single point]",
CC(=O)OC[C@@H]1O[C@H](C/C=N\OC[C@@H](O)[C@H]2O[C@H]3OC(C)(C)O[C@H]3[C@@H]2O)C=C[C@@H]1OC(C)=O,,inactive: 6.27% [at 13.5 µM]
Cc1ccc(C(=O)O)cc1-n1c(C)cc(C=O)c1C,active: 2 µM,
CC(=O)c1ccc(Nc2ccc(-c3ccccc3C)nn2)cc1,active: 7.08 µM,
Cc1cccc([C@H]2[C@@H]3C=CC[C@@H](C)[C@@H]3C(=O)N2Cc2ccccc2)c1,"inconclusive [inhibitor, single point]",
CCN1C(=O)CC(c2ccco2)Sc2ccccc21 (stereo not given),"inconclusive [inhibitor, single point]",
NNc1nc2c(-c3ccc(F)cc3)nnn2c2ccccc12,"inconclusive [inhibitor, single point]",
O=C(CSc1nc2ccccc2[nH]1)N1CCN(S(=O)(=O)c2ccc(Cl)cc2)CC1,,inactive: -3.65%

SMILES,Potency,"activity, negative = inhibition"
CS(=O)(=O)c1ccc(N)cc1,,inactive: -0.745%
Cc1ccc2nc(C)cc(C(=O)OCC(=O)Nc3cccnc3Cl)c2c1,"inconclusive [inhibitor, single point]",
O=C(NCc1cccs1)c1cnc(Cl)c(Cl)c1,"inconclusive [inhibitor, single point]",
O=C(Nc1ncc(Cc2ccc(SC(F)F)cc2)s1)c1ccc(OC(F)F)cc1,"inconclusive [inhibitor, single point]",
CC(C)Nc1ncnc2ccc(Br)cc12,,inactive: -15.6%
CCOc1ccccc1C(=O)Nc1nnc(SCC(=O)N2CCOCC2)s1,"inconclusive [inhibitor, single point]",
CCOCCCNC(=O)C1CCC(CNS(=O)(=O)c2ccc(OC)cc2)CC1 (stereo not given),"inconclusive [inhibitor, single point]",
Cc1cc2cc(CN(Cc3ccco3)S(=O)(=O)c3c(C)ccc4nsnc34)c(=O)[nH]c2cc1C,"inconclusive [inhibitor, partial curve]",
CCCC(=O)N1CCN(c2ccc([N+](=O)[O-])cc2Cl)CC1,"inconclusive [inhibitor, single point]",
COc1ccc2[nH]cc(CCNc3nc(-c4cccc(NS(C)(=O)=O)c4)nc4ccccc34)c2c1,,inactive: -0.602%
O=S1(=O)N=C(Nc2ccc(S(=O)(=O)N3CCCCC3)cc2)c2ccccc21,"inconclusive [inhibitor, single point]",
CSc1nc2ccccc2cc1/C=C(\C#N)c1ccccc1,"inconclusive [inhibitor, single point]",
N#CC1=C(N)SC(N)=C(C#N)C1CCc1ccccc1,"inconclusive [inhibitor, partial curve]",
Clc1ccc(-c2ccc(/C=N/Nc3cc(N4CCOCC4)nc(N4CCOCC4)n3)o2)cc1,"inconclusive [inhibitor, single point]",
C=CC[C@@H]1C=C[C@@H](O/N=C(/C)CCC(=O)OC[C@@H]2O[C@H](C#Cc3ccccc3)C=C[C@@H]2Oc2ccc(C)cc2)[C@@H](CO)O1,,inactive: 10.3% [at 13.5 µM]
COc1cc(C(=O)Nc2sc3c(c2C(=O)NCc2ccco2)CCCC3)cc(OC)c1OC,"inconclusive [inhibitor, partial curve]",
Cc1ccc(-c2cc(C(=O)N(C)Cc3cnn(C)c3C)c3cc(Br)ccc3n2)cc1,"inconclusive [inhibitor, single point]",
Cc1ccc2cccc(NC(=S)NC(=O)c3c(Br)cnn3C)c2n1,"inconclusive [inhibitor, single point]",
NC(=O)CSc1nnc(-c2ccc(S(=O)(=O)N3CCOCC3)cc2)n1CC1CCCO1 (stereo not given),"inconclusive [inhibitor, single point]",
CCCN1CCC(=NNC(=O)c2ccc(Br)o2)CC1,active: 12.6 µM,
CCN(CC(=O)NCc1ccc(Cl)cc1)Cc1cc(=O)n2ccsc2n1,,inactive: -2.12%
COc1cc(/C=C(\C#N)c2ccccn2)ccc1OCC(=O)Nc1ccc(Br)cc1,"inconclusive [inhibitor, partial curve]",
